# In PubChem BioAssay AID1159614 (National Center for Advancing Translational Sciences (NCATS), 2016):
# The campaign covered roughly 45,000 compounds. About 65 (0.1%) were called active. Calls come from the whole dose curve; as a rule, active = well fitted activation curve with a large enough effect; inconclusive = small, poorly fitted or top-dose-only effect; inactive = no such curve, though single readings can be large or run the other way. Some of the results follow.
# Molecular target: Galactocerebrosidase (Homo sapiens) (UniProt P54803)
# Test: A Novel Cell-Based Assay to Identify Small Molecules for B -Galactocerebrosidase; note: 0% is about no effect; nearly all actives have a fitted effect of over 65% in size
# Conditions: 145M-Twi-hGALC-G270D cells (Twitcher mouse brain line with human GALC G270D), HMU-beta-Gal fluorescence, 48 h; series mostly up to 57.5 µM; activation: at the top concentration
# Summary of the method: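 Mutant human GALC (G270D), stably expressed in a Twitcher mouse brain cell line lacking endogenous GALC, is measured in live-treated cells via 6-hexadecanoylamino-4-methylumbelliferyl-β-galactoside hydrolysis (0.1 mM final, pH 5.2) with fluorescent detection.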
# Sequence of UniProt P54803 (P54803 whole entry, looked up): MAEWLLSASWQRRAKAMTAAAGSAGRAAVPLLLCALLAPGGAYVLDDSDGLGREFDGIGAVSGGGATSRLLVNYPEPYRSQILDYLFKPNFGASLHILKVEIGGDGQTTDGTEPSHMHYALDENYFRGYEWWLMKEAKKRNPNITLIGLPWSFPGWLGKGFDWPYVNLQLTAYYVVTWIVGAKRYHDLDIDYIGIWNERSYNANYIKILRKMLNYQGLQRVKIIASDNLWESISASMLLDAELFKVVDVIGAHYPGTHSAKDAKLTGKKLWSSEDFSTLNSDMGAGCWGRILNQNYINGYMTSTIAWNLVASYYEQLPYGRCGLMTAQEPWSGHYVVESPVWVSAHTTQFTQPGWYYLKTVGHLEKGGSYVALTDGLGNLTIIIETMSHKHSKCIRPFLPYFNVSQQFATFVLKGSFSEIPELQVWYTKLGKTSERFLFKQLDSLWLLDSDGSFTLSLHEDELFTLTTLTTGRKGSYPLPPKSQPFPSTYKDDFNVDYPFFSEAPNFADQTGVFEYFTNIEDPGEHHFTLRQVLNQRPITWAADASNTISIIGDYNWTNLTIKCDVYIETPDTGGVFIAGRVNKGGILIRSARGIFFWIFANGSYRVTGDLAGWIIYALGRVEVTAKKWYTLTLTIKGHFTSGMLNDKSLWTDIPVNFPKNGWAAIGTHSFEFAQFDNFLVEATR
row,SMILES,activation
1,COc1ccccc1-c1nn2c(=O)cc(CN3CCN(C(=O)Nc4ccc(C)cc4Cl)CC3)nc2s1,inactive: -15.4%
2,CCOc1ccc(-n2c(=O)c3c(C)c(C)sc3n(CC(=O)C(C)(C)C)c2=O)cc1,inactive: -7.23%
3,O=c1cc(COc2ccc(Cl)cc2Cl)nc2scc(-c3ccccc3)n12,inactive: -0.435%
4,CC(CNC(=O)c1ccc2c(c1)nc1n2CCCCC1)c1ccccc1 (centres undefined),inactive: -9.46%
5,CCOc1ccc(CC(=O)NC2CC(=O)N(c3cccc(F)c3)C2)cc1 (centres undefined),inactive: -8.85%
6,COc1ccccc1OCC(=O)N(Cc1ccco1)Cc1ccccc1F,inactive: -14.1%
7,Cc1cc(C)cc(NC(=O)CCc2c(C)nc3nc(CNC(=O)c4cccc(F)c4)nn3c2C)c1,inactive: -16.7%
8,COCCCNc1nc2c(c(=O)n(Cc3ccc(F)cc3)c(=O)n2C)n1C,inactive: -11.5%
9,CCCCC(=O)Nc1nnc(S(=O)(=O)N(C)Cc2ccc(Cl)cc2)s1,inactive: -7.09%
10,COc1ccc(N(Cc2cccs2)C(=O)c2ccco2)cc1,inactive: -10.7%
11,CC(=O)c1ccc(N2CCN(C(=O)c3cn(C)c(=O)c4c3c3ccccc3n4C)CC2)cc1,inactive: -10.4%
12,Cc1ccc(-n2c(=O)c3c(c4cc(C)ccc4n3C)n(CC(=O)Nc3ccc(F)cc3)c2=O)cc1,inactive: -3.75%
13,CCS(=O)(=O)N1CCc2cc(C(=O)Nc3ccc(Br)cc3F)ccc21,inactive: -31.4%
14,CCc1cccc(C)c1NC(=O)c1ccc2c(c1)CCN2S(=O)(=O)c1ccc(Cl)cc1,inactive: -9.99%
15,COc1cc(C(=O)NCC(c2ccco2)S(=O)(=O)c2cccs2)cc(OC)c1OC (centres undefined),inactive: -0.286%
16,COc1ccc(CNC(=O)COCc2cc(-c3ccc4c(c3)OCO4)on2)cc1,inactive: -6.05%
17,Cc1c(Cl)cccc1Nc1nn2c(=O)c3ccccc3nc2s1,inactive: -9.44%
18,COC(=O)c1cc2oc3ccccc3c2n1Cc1ccc(C)cc1,inactive: 2.1%
19,CCOC(=O)c1cc2c(=O)n3ccccc3nc2n(Cc2ccco2)c1=NC(=O)c1ccccc1Br,inactive: -0.534%
20,COc1ccc(OC)c(S(=O)(=O)NCC(c2ccc(N(C)C)cc2)N2CCOCC2)c1 (centres undefined),inactive: -22.2%
21,COC(=O)c1cc(NC(=O)c2cc3c(-c4ccccc4F)nn(C)c3s2)cc(C(=O)OC)c1,inactive: 4.37%
22,COc1ccc(N2CCN(S(=O)(=O)c3ccc(CC(C)C)cc3)CC2)cc1,inactive: -13%
23,O=C(NCC(c1ccco1)S(=O)(=O)c1cccs1)c1ccccc1 (centres undefined),inactive: -17.6%
24,CCOC(=O)c1cccc(NC(=O)C(C)n2nc(C)c3c(C)n(-c4ccccc4)nc3c2=O)c1 (centres undefined),inactive: -13%
25,COc1ccc(-c2[nH]c(-c3ccc(O)cc3)nc2-c2ccccc2)cc1,inactive: -40.2%

row,SMILES,activation
1,Cc1ccc([N+](=O)[O-])cc1NC(=O)CN(c1ccccc1)S(=O)(=O)N(C)C,inactive: 1.22%
2,Cc1oc(-c2ccccc2F)nc1CS(=O)(=O)CC(=O)N1CCN(c2ccccc2)CC1,inactive: -13.3%
3,CCOc1ccc(NC(=O)Cn2c(=O)n(CCCC(=O)NCCc3ccc(Cl)cc3)c(=O)c3ccccc32)cc1,inactive: -5.92%
4,Cc1ccccc1-c1noc(-c2ccc(NCC3CCCO3)c([N+](=O)[O-])c2)n1 (centres undefined),inactive: -14%
5,Cc1ccc(Cn2c(SCC(=O)NCc3ccccc3)nc3ccsc3c2=O)cc1,inactive: -13.2%
6,Cc1cccc(N2CCN(S(=O)(=O)c3ccc(-c4cnc(C5CC5)o4)cc3)CC2)c1C,inactive: -6.71%
7,CCOC(=O)C1CCCN(CC(=O)N2CCCc3c2c(=O)oc2ccc(OCc4ccccc4)cc32)C1 (centres undefined),inactive: -10.8%
8,COc1cc(OC)cc(C(=O)Nc2cc(-c3nc4cc(Cl)ccc4o3)ccc2Cl)c1,inactive: -1.39%
9,CCN1CCN(CCCNC(=O)c2cc3c(s2)-c2ccccc2OC3)CC1,inactive: -9.74%
10,O=C(CN1C(=O)COc2ccc(S(=O)(=O)N3CCCC3)cc21)N1CCN(c2ccccc2)CC1,inactive: 22.6%
11,O=C(CSc1ncc2c(n1)-c1ccc(Cl)cc1N(Cc1ccccc1)S2(=O)=O)Nc1ccc(F)c(F)c1,inactive: -12.3%
12,COc1ccc2c(Sc3ccccc3)c(C(=O)NCCc3ccc(Cl)cc3)[nH]c2c1,inactive: -15.3%
13,COc1ccc(CNC(=O)Nc2ccc3c(c2)N(C)C(=O)c2ccccc2S3)cc1,inactive: -43.8%
14,CC(=O)C1=C(c2ccc(C)cc2)N(C(C)=O)n2c(nnc2C2CCCCC2)S1,inactive: -8%
15,CCOc1ccc(C2C(C(N)=O)=C(C)Nc3nc(SCc4ccccc4)nn32)cc1 (centres undefined),inactive: 10.5%
16,O=C(NCc1ccc2c(c1)CCN2C(=O)c1ccccc1)c1cc2ccccc2[nH]1,inactive: -16.2%
17,CCc1ccc(NC(=O)c2sc3ncnc(N(C)C4CCCCC4)c3c2C)cc1,inactive: -16.9%
18,O=C(c1cccs1)c1cn(CCOc2ccccc2F)c2ccccc12,inactive: -31.3%
19,COc1cccc2cc(-c3nc(Nc4cccc(C)c4)sc3C)c(=O)oc12,inactive: -4.66%
20,COc1ccc(-c2nnc(SCc3cc(=O)c4cc(C)cc(C)c4[nH]3)n2C)cc1,inactive: 1.91%
21,COc1cccc(CN2C(=O)c3ccccc3Sc3ccc(C(=O)N(C)Cc4ccccc4)cc32)c1,inactive: -14.3%
22,COc1ccccc1NC(=O)c1cc2ccc3cccnc3c2[nH]1,inactive: -19.8%
23,CCCCNC(=O)CSc1nc2ccccc2nc1Cc1ccc(C)cc1,inactive: -6.5%
24,CCOC(=O)c1ccccc1NC(=O)c1c2c(nc3ccccc13)C(=O)N(C1CCCCC1)C2,inactive: -1.64%
